Results as given in patent publication US20210388118A1 (ZHEJIANG SHIMAI PHARMACEUTICAL, published 2021).

How the values were obtained:
[1] = target: human EGFR on cells (HCT116, A549, A431, HT29) (human, UniProt P00533); experiment: cell-based or functional assay
[2] = target: T1, human CD3 on cells (Jurkat T cell line; T cells) (human, UniProt P07766); experiment: flow cytometry on Jurkat cells, concentration series
T1 construct: whole, on cells; CD3 is a complex of several chains; also called cell surface CD3; cell-surface CD3
Text: The cells were washed once with PBSA and then used for flow cytometry analysis.

UniProt P07766, sequence (P07766 23-207): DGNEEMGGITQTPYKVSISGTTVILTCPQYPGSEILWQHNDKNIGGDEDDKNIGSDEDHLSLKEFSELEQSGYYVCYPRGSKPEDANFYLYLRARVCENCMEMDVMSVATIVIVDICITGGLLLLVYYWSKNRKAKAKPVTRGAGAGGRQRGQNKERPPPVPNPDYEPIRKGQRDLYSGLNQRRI

B1: proBiTE-1 (protease cleavable bispecific T cell engager, EGFR×CD3) (bispecific antibody)
heavy: EVQLVETGGGVVQPGRSLRLSCAASGFTFSSYAMHWVRQAPGKGLEWVAVISYDGSNKYYADSVKGRFTISRDNSKNTLYLQMNSLRAEDTAVYYCARGYVARGDFDYWGQGTLVTVSSGGGSSGGGGSGGGGSQVQLVQSGGGVVQPGRSLRLSCKASGYTFTRYTMHWVRQAPGKGLEWIGYINPSRGYTNYNQKVKDRFTISTDKSKSTAFLQMDSLRPEDTAVYYCARYYDDHYSLDYWGQGTTLTVSSASTKGPSVFPLAPSSKSTSGGTAALGCLVKDYFPEPVTVSWNSGALTSGVHTFPAVLQSSGLYSLSSVVTVPSSSLGTQTYICNVNHKPSNTKVDKKVEPKS[… human IgG1 Fc with T366L Y407H (EU numbers) …]
light: DVVMTQSPSTLSASVGDRVTITCRASQSMSRWLAWYQQKPGKGPKLLIYATSTLQSGVPSRFSGSGSGTEFTLTISSLQPEDFATYYCQQLDSFPFSFTFGPGTKVDLKGGGGSLSGRSDNHGGGGSDIQMTQSPSSLSASVGDRVTITCSASSSVSYMNWYQQTPGKAPKRWIYDTSKLASGVPSRFSGSGSGTDYTFTISSLQPEDIATYYCQQWSSNPFTFGQGTKLQITRTVAAPSVFIFPPSDEQLKSGTASVVCLLNNFYPREAKVQWKVDNALQSGNSQESVTEQDSKDSTYSLSSTLTLSKADYEKHKVYACEVTHQGLSSPVTKSFNRGE[… human IgG1 Fc with T366L Y407H (EU numbers) …]
modifications: Biotinylated in the FcγR ELISA; sites not stated.
notes: also called intact proBiTE-1; copies: 1 + 1
[1]
  killing of HT29 cells (luciferase) with human PBMC, EC50: ~0.09 nM
  killing of HT29 cells, EC50 fold higher than that of iBiTE: 15 fold
[2]
  fold weaker binding than iBiTE: ~30 fold
